Assay results: PubChem BioAssay AID686978 (National Center for Advancing Translational Sciences (NCATS), 2013)
“And” between values parts separate entries of the source, which are not always exact repeats. Equal values may be shown once. Screen size: about 420,000 compounds; about 64,000 (15%) were called active. Inconclusive results, whose numbers are uncertain, are shown with a selection of clear calls. Calls follow the shape of the dose curve; as a rule, active = well fitted inhibition curve with a large enough effect; inconclusive = small, poorly fitted or top-dose-only effect; inactive = flat fitted curve, though single readings scatter. Potencies of inconclusive entries are left out as doubtful fits.
% is scaled to controls: 0 for no effect and ±100 for the full control effect; potency is read from the fitted curve at half-maximal effect; tags tell the direction and shape of the fitted curve.

Test: qHTS for Inhibitors of human tyrosyl-DNA phosphodiesterase 1 (TDP1): qHTS in cells in absence of CPT; also: nearly all actives have a fitted effect of over 55% in size
Conditions: DT40 Tdp1-/- hTDP1 cells, no CPT, ATP luminescence, 48 h; activity change, negative = growth inhibition: at 46.2 µM (top of the series) unless noted
In short: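 Chicken DT40 Tdp1-/- cells complemented with human TDP1, screened without camptothecin (DMSO vehicle only), 400 cells/well. Compounds pin-transferred, cells incubated at 37 °C for at least 48 hr. Growth read as ATP-dependent luminescence (CellTiter-Glo, 30 min at RT).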
In the case of CCOC(=O)C(C)/C(C)=N\Nc1ccc([N+](=O)[O-])cc1[N+](=O)[O-] (stereo unspecified), the Potency is reported as inconclusive [inhibitor, single point]. For Brc1ccc(-c2csc(N3CCOCC3)n2)cc1, the Potency was inconclusive [inhibitor, single point]. With Cc1ccc2[nH]c3c(NCc4ccco4)ncnc3c2c1 the Potency was active: 18.4 µM. With O=C(Cc1ccc(F)cc1)Nc1ccccc1N1CCCC1 the activity change, negative = growth inhibition was inconclusive: -30.2% [inhibitor]. In the case of CC(=O)NNc1nc(-c2ccccc2)cs1, the Potency is reported as inconclusive [inhibitor, single point]. With COc1ccccc1N1CCN(c2nc(CNC(=O)c3ccccc3F)nc3ccccc23)CC1 the Potency was active: 8.2 µM. With CCOC(=O)N1CCN(C(=O)CSc2ccc(C(=O)OC)cc2[N+](=O)[O-])CC1 the Potency was inconclusive [inhibitor, single point]. With O=C(CCCn1c(=S)[nH]c2cc3c(cc2c1=O)OCO3)N1CCc2ccccc2C1 the “activity change, negative = growth inhibition” value was inactive: -18.8%. With O=C(CSc1nncs1)Nc1cc(-c2ccccc2)nn1-c1ccccc1 the Potency was inconclusive [inhibitor, single point]. With CCN(CC)CCn1c(NCc2cc(OC)ccc2OC)nc2ccccc21 the Potency was inconclusive [inhibitor, single point]. For Cc1ccccc1CNC(=O)c1ccc2c(c1)N(Cc1ccccc1)CCS2, the Potency was active: 20.6 µM. For Cc1cccc(C)c1Nc1c(-c2ccccc2O)nc2ncccn12, the Potency was active: 18.4 µM and active: 23.1 µM. For c1ccc(-c2ccc(-c3ccccc3)[nH]2)cc1, the Potency was inconclusive [inhibitor, single point]. For OC(CN1CCN(C(c2ccccc2)c2ccccc2)CC1)c1ccc(Br)cc1 (stereo unspecified), the Potency was inconclusive [inhibitor, single point]. For COc1cc(OC)cc(OCC(O)Cn2cnc3cc(C)c(C)cc32)c1 (stereo unspecified), the Potency was active: 16.4 µM. In the case of CCOc1cc(C(=O)Nc2ccc(F)cc2)cc(Br)c1OC, the Potency is reported as inconclusive [inhibitor, single point]. For CC(C)(O)CCc1c(-c2ccc(O)cc2O)oc2c3c(cc(O)c2c1=O)OC(C)(C)C=C3, the Potency was active: 16.4 µM. In the case of C[C@@H]1[C@@H](Sc2ccccc2)CC(=O)O[C@@H]1c1ccc(-c2ccccc2)cc1, the Potency is reported as active: 7.31 µM. For O=c1oc2ccc3ccccc3c2cc1-c1nnc(Nc2cccc(F)c2)s1, the “activity change, negative = growth inhibition” value was inactive: -19.6%. With O=C(CCCn1c(=O)c2cccn2c2cccnc21)Nc1ccccc1Br the activity change, negative = growth inhibition was inconclusive: -30.2% [inhibitor]. With O=C(CSc1ccc2ccccc2n1)N/N=C/c1ccccc1O the Potency was active: 5.8 µM. In the case of CC1CN(Cc2ccco2)C(=S)NC1=O (stereo unspecified), the “activity change, negative = growth inhibition” value is reported as inactive: -3.48%. With Cc1cc(C)c(Cn2c(=O)[nH][nH]c2=O)cc1Cn1c(=O)[nH][nH]c1=O the “activity change, negative = growth inhibition” value was inactive: -4.32%. For COc1ccc(S(=O)(=O)N2CCCN(CC(=O)Nc3ccccc3F)CC2)cc1, the Potency was inconclusive [inhibitor, partial curve]. With COc1cccc(OCc2nn3c(=O)c(-c4ccccc4)nnc3s2)c1 the “activity change, negative = growth inhibition” value was inactive: -9.73%. For COc1ccc(C(C)(O)c2nc(-c3ccc4c(c3)OCO4)cs2)cc1 (stereo unspecified), the Potency was inconclusive [inhibitor, single point]. With Cc1cccn2c(=O)c3cc(C(=O)NCC4CCCO4)c(=N)n(C4CCCCC4)c3nc12 (stereo unspecified) the Potency was inconclusive [inhibitor, partial curve]. With CC(CNC(=O)c1ccc(N)cc1)NC(=O)c1ccc(N)cc1 (stereo unspecified) the “activity change, negative = growth inhibition” value was inactive: -21%. In the case of CC(C)N(C(=O)[C@H]1CC(CC(=O)NCCCN(C)C)C(=O)N2CCc3c([nH]c4ccccc34)[C@]12C)C(C)C (stereo partly specified), the “activity change, negative = growth inhibition” value is reported as inactive: -8.94%. For CCN1CCOC(=O)C1CC(=O)Nc1cc(Cl)ccc1OC (stereo unspecified), the Potency was active: 2.59 µM. With Cc1ccc(CNC(=O)Cn2cc(C(=O)c3ccc(Cl)cc3)c(=O)c3ccc(C)nc32)cc1 the Potency was active: 16.4 µM. For COc1ccccc1N(C)C, the “activity change, negative = growth inhibition” value was inactive: 3.31%. With C/C(=N\NC(=O)c1cccc(Br)c1)c1ccccn1 the Potency was active: 0.92 µM. In the case of O=C(CN1C2=NCCCN2c2ccccc21)c1ccc2c(c1)OCO2, the Potency is reported as inconclusive [inhibitor, single point]. With CCC(=O)Nc1ccc(C(=O)Nc2cc(C)on2)cc1 the “activity change, negative = growth inhibition” value was inactive: 2.69%. With O=C(N[C@@H](Cc1ccccc1)C(=O)OCc1ccccc1)c1nc[nH]c1C(=O)NC1CCNCC1 the “activity change, negative = growth inhibition” value was inactive: 0.388%. In the case of Cc1ccc(SCC(=O)NNC(=O)CNC(=O)c2ccccc2F)cc1, the activity change, negative = growth inhibition is reported as inconclusive: -6.73% [inhibitor]. In the case of O=C(Nc1cc(Cl)cc(Cl)c1)C1CCCC1, the Potency is reported as inconclusive [inhibitor, single point]. With COc1ccc(C(=O)CC(=O)C(=O)Nc2ccc([N+](=O)[O-])cc2C)cc1 the Potency was inconclusive [inhibitor, single point]. With Cc1ccc(S(=O)(=O)N2CCCc3cc(NC(=O)c4c(F)cccc4F)ccc32)cc1 the Potency was inconclusive [inhibitor, single point]. With Cc1onc(-c2ccccc2)c1CNC(=O)Nc1ccc(C(F)(F)F)cc1 the Potency was active: 16.4 µM. With O=C(COc1ccccc1C(=O)Nc1ccccc1)c1ccc(F)cc1 the Potency was inconclusive [inhibitor, partial curve]. For O=C(Nc1cc(S(=O)(=O)N2CCOCC2)ccc1N1CCCC1)c1ccccc1F, the “activity change, negative = growth inhibition” value was inactive: 1.77%. For CCc1ccc(C2=C(C)C(N3CCC(C(=O)NCc4ccc(C)o4)CC3)=NS2(=O)=O)cc1, the Potency was inconclusive [inhibitor, single point]. For CN(C)CCCN1c2ccccc2Sc2ccc3ccccc3c21, the Potency was inconclusive [inhibitor, single point]. In the case of O=C(Nc1cccc(Cl)c1)/C(=C\c1cccnc1)NC(=O)c1ccco1, the “activity change, negative = growth inhibition” value is reported as inactive: 3.14%. For N#C/C(=C\c1ccc(F)cc1)C(=O)NC1CCS(=O)(=O)C1 (stereo unspecified), the “activity change, negative = growth inhibition” value was inactive: -16.1%. In the case of COc1ccc(CN(CCC#N)C(=S)NC(=O)c2ccccc2)cc1, the Potency is reported as inconclusive [inhibitor, single point]. In the case of COc1ccc(OC)c(C(c2nnnn2Cc2ccccc2)N2CCN(C3CCCCC3)CC2)c1 (stereo unspecified), the Potency is reported as inconclusive [inhibitor, single point]. With O=C1N(Cc2cccnc2)C[C@@H]2C[C@@H](c3cccc(OC4CCCC4)c3)N3CCC[C@@]123 the Potency was inconclusive [inhibitor, single point]. In the case of O=C(Nc1nc(-c2ccc(Cl)cc2)cs1)c1cccnc1, the Potency is reported as active: 18.4 µM. For Cc1cccc(-c2noc(-c3ccccc3C(=O)NCc3ccco3)n2)c1, the Potency was active: 20.6 µM. With CNc1oc(/C=C/c2cc(OC)c(OC)c(OC)c2)nc1C#N the Potency was active: 23.1 µM. In the case of COC(=O)N/N=C/c1cc(N=Nc2ccccc2Cl)ccc1O, the Potency is reported as inconclusive [inhibitor, single point]. With O=C(OCC(=O)N1CCCC1)c1ccccc1C(=O)c1ccccc1 the “activity change, negative = growth inhibition” value was inactive: 2.05%. For Cc1ccc(OCC(=O)N(C)CC(=O)Nc2ccc(F)c(F)c2F)cc1, the “activity change, negative = growth inhibition” value was inactive: -3.35%. For Cc1cccc(OCCCCn2c(C3CC(=O)N(c4ccc(C)cc4C)C3)nc3ccccc32)c1 (stereo unspecified), the Potency was inconclusive [inhibitor, single point]. With Cc1cccc(NC(=O)C2CC2c2ccccc2)c1C (stereo unspecified) the Potency was inconclusive [inhibitor, single point]. For O=C(N/C(=C/c1ccccc1F)C(=O)N1CCCCC1)c1ccccc1, the “activity change, negative = growth inhibition” value was inactive: 4.5%. In the case of O=C(CCn1c(=O)c2cccn2c2cccnc21)N1CCN(c2ccc(Cl)cc2)CC1, the Potency is reported as active: 13 µM. For COC(=O)c1ccccc1NC(=O)CCCOc1cc(=O)n(C)c2ccccc12, the Potency was inconclusive [inhibitor, single point]. With COc1ccc2nc(N/C(N)=N/C(=S)Nc3c(C)cccc3C)nc(C)c2c1 the Potency was active: 20.6 µM. With CCCCCC/C=C/c1ccc(OC)c([C@H]2[C@H]3C=CC[C@@H](C)[C@@H]3C(=O)N2Cc2ccccc2)c1 the Potency was inconclusive [inhibitor, full curve, poor fit]. With CC1(C(=O)NCc2ccc(C(F)(F)F)cc2)CCN1Cc1cc2ccccc2o1 (stereo unspecified) the Potency was active: 18.4 µM. For COc1ccc(CNc2cc(C)ccn2)c(O)c1, the “activity change, negative = growth inhibition” value was inactive: -3.95%. In the case of COCCNc1nc(-c2cc(C)n(CCc3ccc(OC)cc3)c2C)cs1, the Potency is reported as active: 18.4 µM. With Cc1cc(C(=O)COC(=O)c2ccc3c(c2)OCO3)c(C)n1Cc1cccs1 the Potency was inconclusive [inhibitor, partial curve, poor fit]. For COc1ccccc1NS(=O)(=O)c1ccc2ccccc2c1, the “activity change, negative = growth inhibition” value was inactive: -2.8%. For Cc1cc(C(=O)COC(=O)CNC(=O)c2ccc(F)cc2)c(C)n1Cc1ccco1, the “activity change, negative = growth inhibition” value was inactive: -3.47%. With O=C1C=C(c2cccc(Br)c2)C[C@@H](c2ccc(F)cc2)C1 the Potency was inconclusive [inhibitor, partial curve, poor fit]. For Cc1ccc(CCC(=O)Nc2ccc([N+](=O)[O-])cc2Cl)o1, the Potency was inconclusive [inhibitor, single point]. For Cc1ccc(C(=O)Nc2ccc(F)cc2)cc1S(=O)(=O)N1CCOCC1, the Potency was inconclusive [inhibitor, single point]. For COCCN1C(=O)C(=O)/C(=C(/O)c2ccc3c(c2)OCCO3)C1c1ccc(C(=O)OC)cc1 (stereo unspecified), the “activity change, negative = growth inhibition” value was inactive: -26%. For COc1ccc2oc(=O)c(C(=O)N3CCCc4ccccc43)cc2c1, the “activity change, negative = growth inhibition” value was inactive: -27.3%. With Cc1cccc(CNC(=O)c2cnc3sc(N4CCOCC4)nn3c2=O)c1 the “activity change, negative = growth inhibition” value was inactive: -19.9%. For CCOc1cccc(CN2CCCC(N3CCN(c4cccc(Cl)c4)CC3)C2)c1O (stereo unspecified), the Potency was inconclusive [inhibitor, single point].
